The results in this text go back to PubChem BioAssay (NCI).

Among the test systems are ACHN renal; TK-10 renal; NCI-H522 lung; NCI-H460 lung; KM12 colon; HL-60(TB) leukemia; DMS 114 small cell lung; HCC-2998 colon; SF-295 CNS; SK-MEL-5 melanoma; HS 578T breast; A498 renal; HOP-92 NSCLC; UACC-62 melanoma; MOLT-4 leukemia; CAKI-1 renal; CCRF-CEM leukemia; RPMI-8226 leukemia; SF-268 CNS; SNB-78 CNS; P388 leukemia; UO-31 renal; OVCAR-4 ovarian; NCI-H23 lung; U251 CNS; HCT-15 colon.

Holding throughout (experiment): NCI tumour cell line growth inhibition, 48 h

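Grown in 96-well plates, cells were treated for 48 hours with each compound at five concentrations. Insufficient inhibition: endpoint recorded as highest concentration tested. GI50 = concentration required for 50% inhibition of growth.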 Certain results were filed several times, with different values. They are shown here; other results are not. An entry can have further records. For some assays here: A record mostly stands for its own series of concentrations, not given here; a value can be the end of its range.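 TGI: total growth inhibition.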 For some assays here: Values that stand side by side are repeated measurements in other runs, samples, wells, individuals or studies. A tag in brackets gives the origin of a value. The letters are not those of the source and start again with each entry. A value given as a limit tells only on which side of the number the result lay.

With `CCCCCCCCCCCCCC(=O)O[C@H]1CC[C@H](NC(=O)[C@H](OC)[C@H](O)[C@@H](O)[C@H](O)/C=C/C(C)C)C(=O)NC1`, the TGI was 16.7 µM and 1.46 µM in the assay on ACHN renal; 760 nM, 18.4 µM, 423 nM in the assay with TK-10 renal; 868 nM, 2.83 µM, 11.1 µM with NCI-H522 lung; 1.01 µM, 6.8 µM, 11.5 µM in the assay with NCI-H460 lung; 4.09 µM, 6.04 µM, 336 nM with HL-60(TB) leukemia; 8.72 nM and 7.19 µM in the assay on DMS 114 small cell lung. Besides, the TGI with HCC-2998 colon is 836 nM, 1.09 µM, 8.15 µM, 13.8 µM; in the assay on SF-295 CNS it was 7.66 µM and 655 nM; with HS 578T breast, 51.2 µM and 3.78 µM. The GI50 with KM12 colon was 166 nM and < 1 nM; in the assay with SK-MEL-5 melanoma it was 298 nM and 8.73 nM.
Take `CCC(C)(C)C(=O)O[C@H]1C[C@@H](C)C=C2C=C[C@H](C)[C@H](CC[C@@H]3C[C@@H](O)CC(=O)O3)[C@H]21`: the TGI was 7.53 µM [sample A] and 595 nM [sample B] in the assay with A498 renal; < 3 nM [sample A] and 265 nM [sample B] with HOP-92 NSCLC; 898 nM [sample A] and 13.3 µM [sample B] with UACC-62 melanoma.
Regarding `CC1=C(C)C(=O)O[C@@H]([C@](C)(O)[C@]2(O)CC[C@@]3(O)[C@@H]4C[C@H]5O[C@]56[C@@H](O)C=CC(=O)[C@]6(C)[C@H]4CC[C@]23C)C1`, the TGI with MOLT-4 leukemia is 281 nM [1 test] and 10.2 µM [mean of 3 tests]; in the assay on HL-60(TB) leukemia, 228 nM [1 test] and 8.09 µM [mean of 2 tests]; with CAKI-1 renal, 44.5 nM and 2.69 µM; with CCRF-CEM leukemia it was 798 nM and 26.5 µM; in the assay on RPMI-8226 leukemia, 742 nM and 12.8 µM; in the assay on SF-268 CNS it was 27.2 µM and 1.07 µM. Besides, the TGI is 67.5 µM and 5.11 µM in the assay on SNB-78 CNS; 1.3 µM and 33.4 µM in the assay on P388 leukemia.
For `O=c1cc(-c2cccc(C(F)(F)F)c2)[nH]c2cc3c(cc12)OCO3`, the TGI in the assay on UO-31 renal was 50 µM and 2.05 µM; in the assay with OVCAR-4 ovarian, 50 µM and 3.92 µM; in the assay on NCI-H23 lung, 50 µM and 747 nM; in the assay on HCC-2998 colon, 22 µM and 2.16 µM; in the assay on U251 CNS it was 50 µM and 412 nM; with UACC-62 melanoma it was 4.68 µM and > 100 µM. Moreover, the TGI in the assay on HCT-15 colon is 3.46 µM and > 100 µM.
